Measurements published in US20100260668A1 (published 2010).
Values belong to the binder of their own block, whether it stands above or below them.

What was measured:
VEGF = target: T1, VEGF; experiment: Biacore SPR
T1 construct: Bought reagent
T1 sequence (looked up): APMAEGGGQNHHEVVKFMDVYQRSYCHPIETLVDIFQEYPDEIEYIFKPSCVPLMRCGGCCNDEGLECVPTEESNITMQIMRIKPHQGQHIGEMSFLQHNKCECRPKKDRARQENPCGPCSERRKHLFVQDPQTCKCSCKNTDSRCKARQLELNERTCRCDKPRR

[1] = target: biotin-labeled human IGF2 (human, biotin-labeled); experiment: capture ELISA, DVD-Ig captured by anti-human Fc, biotin-labeled IGF2; N-terminal VD
[2] = target: biotin-labeled human IGF1 (human, biotin-labeled); experiment: capture ELISA, DVD-Ig captured by anti-human Fc, biotin-labeled IGF1; N-terminal VD
IGF-I = target: T2, IGF-I; experiment: Biacore SPR
T2 construct: Bought reagent; also called IGF1

IGF-2 = target: T3, IGF-2; experiment: Biacore SPR
T3 construct: Bought reagent

PlGF = target: T4, PlGF; experiment: direct bind ELISA, N-terminal VD
T4 construct: bought antigen coated on the ELISA plate; also called Placental GF
T4 sequence (looked up): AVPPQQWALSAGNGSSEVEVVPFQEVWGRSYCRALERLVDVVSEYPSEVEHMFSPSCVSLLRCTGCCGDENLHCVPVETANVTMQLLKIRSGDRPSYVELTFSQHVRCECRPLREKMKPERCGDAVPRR

[3] = target: T5, ErbB3 (ErbB3 ECD/FC Chimera-His tag, R&D 348-RB-050); experiment: direct bind ELISA, coated antigen; N-terminal VD of DVD-Ig
T5 construct: extracellular domain; Bought antigen coated on the ELISA plate

IGF1R ECD = target: T6, IGF1R ECD; experiment: Biacore SPR
T6 construct: extracellular domain; Bought reagent

B1: DVD037 (bispecific antibody, human IgG1, kappa)
heavy: EVQLVESGGGLVQPGGSLRLSCAASGYTFTNYGMNWVRQAPGKGLEWVGWINTYTGEPTYAADFKRRFTFSLDTSKSTAYLQMNSLRAEDTAVYYCAKYPHYYGSSHWYFDVWGQGTLVTVSSASTKGP[omitted - about 450 residues with a human IgG1 Fc]
light: DIQMTQSPSSLSASVGDRVTITCSASQDISNYLNWYQQKPGKAPKVLIYFTSSLHSGVPSRFSGSGSGTDFTLTISSLQPEDFATYYCQQYSTVPWTFGQGTKVEIKRTVAA[omitted - about 200 residues]
notes: N-terminal VD VEGF, C-terminal VD HER-2; also called DVD037H; DVD037L
Kd (VEGF): < 0.00225 nM
koff (VEGF): < 1e-06 s⁻¹
kon (VEGF): 445000 M⁻¹ s⁻¹

B2: DVD030 (bispecific antibody, human IgG1, kappa)
heavy: QVQLVQSGAEVKKPGASVKVSCKASGYTFTSYDINWVRQATGQGLEWMGWMNPNSGNTGYAQKFQGRVTMTRNTSISTAYMELSSLRSEDTAVYYCARDPYYYYYGMDVWGQGTTVTVSSASTKGP[omitted - about 450 residues with a human IgG1 Fc]
light: QSVLTQPPSVSAAPGQKVTISCSGSSSNIENNHVSWYQQLPGTAPKLLIYDNNKRPSGIPDRFSGSKSGTSATLGITGLQTGDEADYYCETWDTSLSAGRVFGGGTKLTVLGQPKAA[omitted - about 200 residues]
notes: also called IGF1,2 / HER-2 DVD-Ig; DVD030H
EC50 [1]: 5.5 nM
EC50 [2]: 1.8 nM

B3: DVD030 (bispecific antibody, human IgG1, kappa)
heavy: QVQLVQSGAEVKKPGASVKVSCKASGYTFTSYDINWVRQATGQGLEWMGWMNPNSGNTGYAQKFQGRVTMTRNTSISTAYMELSSLRSEDTAVYYCARDPYYYYYGMDVWGQGTTVTVSSASTKGP[omitted - about 450 residues with a human IgG1 Fc]
light: QSVLTQPPSVSAAPGQKVTISCSGSSSNIENNHVSWYQQLPGTAPKLLIYDNNKRPSGIPDRFSGSKSGTSATLGITGLQTGDEADYYCETWDTSLSAGRVFGGGTKLTVLGQPKAA[omitted - about 200 residues]
notes: also called DVD030H; DVD030L
Kd (IGF-I): 0.292 nM
koff (IGF-I): 0.00116 s⁻¹
kon (IGF-I): 3.96e+06 M⁻¹ s⁻¹
Kd (IGF-2): 0.00234 nM
koff (IGF-2): 1.98e-05 s⁻¹
kon (IGF-2): 8.46e+06 M⁻¹ s⁻¹

B7: DVD407 (bispecific antibody, human IgG1, kappa)
heavy: EVQLVESGGGLVQPGGSLRLSCAASGFTFSIYSMNWVRQAPGKGLEWVSYISSSSSTIYYADSVKGRFTISRDNAKNSLYLQMNSLRDEDTAVYYCARDRGDFDAFDIWGQGTMVTVSSASTKGP[omitted - about 450 residues with a human IgG1 Fc]
light: DIQMTQSPSSLSASVGDRVTITCQASQDITNYLNWYQQKPGKAPKLLIYDASNLETGVPSRFSGSGSGTDFTFTISSLQPEDIATYNCQQCENFPITFGQGTRLEIKRTVAAPSVFIFP[omitted - about 200 residues]
notes: DVD-Ig; HC linker short, LC linker long; also called DVD407H; DVD407L
EC50 [3]: 2.98 nM

B8: DVD411 (bispecific antibody, human IgG1, kappa)
heavy: EVQLLESGGGLVQPGGSLRLSCAASGFTFSHYVMAWVRQAPGKGLEWVSSISSSGGWTLYADSVKGRFTISRDNSKNTLYLQMNSLRAEDTAVYYCTRGLKMATIFDYWGQGTLVTVSSASTKGP[omitted - about 450 residues with a human IgG1 Fc]
light: QSALTQPASVSGSPGQSITISCTGTSSDVGSYNVVSWYQQHPGKAPKLIIYEVSQRPSGVSNRFSGSKSGNTASLTISGLQTEDEADYYCCSYAGSSIFVIFGGGTKVTVLGQPKAA[omitted - about 200 residues]
notes: DVD-Ig; HC linker short, LC linker short; also called DVD411H; DVD411L
EC50 [3]: 4.92 nM

B11: DVD403 (bispecific antibody, human IgG1, kappa)
heavy: EVQLVESGGGLVQPGGSLRLSCAASGFTFSIYSMNWVRQAPGKGLEWVSYISSSSSTIYYADSVKGRFTISRDNAKNSLYLQMNSLRDEDTAVYYCARDRGDFDAFDIWGQGTMVTVSSASTKGPSVFPLAP[omitted - about 450 residues with a human IgG1 Fc]
light: DIQMTQSPSSLSASVGDRVTITCQASQDITNYLNWYQQKPGKAPKLLIYDASNLETGVPSRFSGSGSGTDFTFTISSLQPEDIATYNCQQCENFPITFGQGTRLEIKRTVAA[omitted - about 200 residues]
notes: DVD-Ig; HC linker long, LC linker short; also called DVD403H; DVD403L
EC50 [3]: 1.03 nM

B14: DVD032 (bispecific antibody, human IgG1, kappa)
heavy: EVQLLESGGGLVQPGGSLRLSCTASGFTFSSYAMNWVRQAPGKGLEWVSAISGSGGTTFYADSVKGRFTISRDNSRTTLYLQMNSLRAEDTAVYYCAKDLGWSDSYYYYYGMDVWGQGTTVTVSSASTKGP[omitted - about 450 residues with a human IgG1 Fc]
light: DIQMTQFPSSLSASVGDRVTITCRASQGIRNDLGWYQQKPGKAPKRLIYAASRLHRGVPSRFSGSGSGTEFTLTISSLQPEDFATYYCLQHNSYPCSFGQGTKLEIKRTVAA[omitted - about 200 residues]
notes: N-terminal VD IGF1R, C-terminal VD HER-2; also called DVD032H; DVD032L
Kd (IGF1R ECD): 0.829 nM
koff (IGF1R ECD): 4.23e-05 s⁻¹
kon (IGF1R ECD): 51000 M⁻¹ s⁻¹

More lines, now with the values ahead:

EC50 (PlGF): 0.14 nM
B4: DVD547 (bispecific antibody, human IgG1, kappa)
heavy: QVQLKQSGPGLVQPSQSLSITCTVSGFSLTTYGIHWVRQSPGKGLEWLGVMWSGGDTDYDAAFISRLSISKDNSKSQVFFKMNSLQANDTGIYYCARYRFYGMDYWGQGTSVTVSSASTKGP[omitted - about 450 residues with a human IgG1 Fc]
light: AIQMTQSSSSFSVSLGDRVTITCKASEDIYNRFAWYQQKPGNAPRLLISGAASLEAGVPSRFSGSGSGQDYTLSITSLQTEDVATYYCQQYWSTPWTFGGGTKLEIKRTVAA[omitted - about 200 residues]
notes: HC linker short, LC linker short; also called DVD-Ig DVD547

EC50 (PlGF): 33.1 nM
B5: DVD571 (bispecific antibody, human IgG1, kappa)
heavy: QVQLKQSGPGLVQPSQSLSITCTVSGFSLTTYGIHWVRQSPGKGLEWLGVMWSGGDTDYDAAFISRLSISKDNSKSQVFFKMNSLQANDTGIYYCARYRFYGMDYWGQGTSVTVSSASTKGP[omitted - about 450 residues with a human IgG1 Fc]
light: AIQMTQSSSSFSVSLGDRVTITCKASEDIYNRFAWYQQKPGNAPRLLISGAASLEAGVPSRFSGSGSGQDYTLSITSLQTEDVATYYCQQYWSTPWTFGGGTKLEIKRTVAAPSVFIFP[omitted - about 200 residues]
notes: HC linker short, LC linker long; also called DVD-Ig DVD571

EC50 (PlGF): 0.21 nM
B6: DVD563 (bispecific antibody, human IgG1, kappa)
heavy: QVQLKQSGPGLVQPSQSLSITCTVSGFSLTTYGIHWVRQSPGKGLEWLGVMWSGGDTDYDAAFISRLSISKDNSKSQVFFKMNSLQANDTGIYYCARYRFYGMDYWGQGTSVTVSSASTKGPSVFPLAP[omitted - about 450 residues with a human IgG1 Fc]
light: AIQMTQSSSSFSVSLGDRVTITCKASEDIYNRFAWYQQKPGNAPRLLISGAASLEAGVPSRFSGSGSGQDYTLSITSLQTEDVATYYCQQYWSTPWTFGGGTKLEIKRTVAA[omitted - about 200 residues]
notes: HC linker long, LC linker short; also called DVD-Ig DVD563

EC50 [3]: 32.4 nM
B9: DVD419 (bispecific antibody, human IgG1, kappa)
heavy: EVQLLESGGGLVQPGGSLRLSCAASGFTFSHYVMAWVRQAPGKGLEWVSSISSSGGWTLYADSVKGRFTISRDNSKNTLYLQMNSLRAEDTAVYYCTRGLKMATIFDYWGQGTLVTVSSASTKGPSVFPLAP[omitted - about 450 residues with a human IgG1 Fc]
light: QSALTQPASVSGSPGQSITISCTGTSSDVGSYNVVSWYQQHPGKAPKLIIYEVSQRPSGVSNRFSGSKSGNTASLTISGLQTEDEADYYCCSYAGSSIFVIFGGGTKVTVLGQPKAA[omitted - about 200 residues]
notes: DVD-Ig; HC linker long, LC linker short; also called DVD419H; DVD419L

EC50 [3]: 4.69 nM
B10: DVD423 (bispecific antibody, human IgG1, kappa, lambda)
heavy: EVQLLESGGGLVQPGGSLRLSCAASGFTFSHYVMAWVRQAPGKGLEWVSSISSSGGWTLYADSVKGRFTISRDNSKNTLYLQMNSLRAEDTAVYYCTRGLKMATIFDYWGQGTLVTVSSASTKGP[omitted - about 450 residues with a human IgG1 Fc]
light: QSALTQPASVSGSPGQSITISCTGTSSDVGSYNVVSWYQQHPGKAPKLIIYEVSQRPSGVSNRFSGSKSGNTASLTISGLQTEDEADYYCCSYAGSSIFVIFGGGTKVTVLGQPKAAPSVTLFP[omitted - about 200 residues]
notes: DVD-Ig; HC linker short, LC linker long; also called DVD423H; DVD423L

EC50 [3]: 0.48 nM
B12: DVD685 (bispecific antibody, human IgG1, kappa)
heavy: EVQLVESGGGLVQPGGSLRLSCAASGFTFSIYSMNWVRQAPGKGLEWVSYISSSSSTIYYADSVKGRFTISRDNAKNSLYLQMNSLRDEDTAVYYCARDRGDFDAFDIWGQGTMVTVSSASTKGP[omitted - about 450 residues with a human IgG1 Fc]
light: DIQMTQSPSSLSASVGDRVTITCQASQDITNYLNWYQQKPGKAPKLLIYDASNLETGVPSRFSGSGSGTDFTFTISSLQPEDIATYNCQQCENFPITFGQGTRLEIKRTVAA[omitted - about 200 residues]
notes: DVD-Ig; HC linker short, LC linker short; also called DVD685H; DVD685L

EC50 [3]: 13 nM
B13: DVD415 (bispecific antibody, human IgG1, kappa, lambda)
heavy: EVQLLESGGGLVQPGGSLRLSCAASGFTFSHYVMAWVRQAPGKGLEWVSSISSSGGWTLYADSVKGRFTISRDNSKNTLYLQMNSLRAEDTAVYYCTRGLKMATIFDYWGQGTLVTVSSASTKGPSVFPLAP[omitted - about 450 residues with a human IgG1 Fc]
light: QSALTQPASVSGSPGQSITISCTGTSSDVGSYNVVSWYQQHPGKAPKLIIYEVSQRPSGVSNRFSGSKSGNTASLTISGLQTEDEADYYCCSYAGSSIFVIFGGGTKVTVLGQPKAAPSVTLFP[omitted - about 200 residues]
notes: DVD-Ig; HC linker long, LC linker long; also called DVD415H; DVD415L
